Experimental data published in the antibiotic and cytotoxicity screens of Wong et al. (2023).
The other results are listed elsewhere or left out.

Test system: HepG2
Assay: cytotoxicity call (relative viability < 0.9)
Conditions: 10 µM

Compound	cytotoxicity call
CO[C@@H]1CN(C)C(=O)c2ccc(NC(=O)NC(C)C)cc2OC[C@@H](C)N(Cc2ccc(-c3ccccn3)cc2)C[C@@H]1C	inactive
C=CCCCCCCCCC(=O)O	inactive
C[C@@H]1CCCCO[C@@H](CN(C)S(=O)(=O)c2ccc(Cl)cc2)[C@H](C)CN([C@@H](C)CO)C(=O)c2cc(NC(=O)c3ccncc3)ccc2O1	inactive
CN(C)C(=N)NC(=N)N.Cl	inactive
C[C@H](O)C#Cc1ccc2c(c1)O[C@@H](CN(C)C(=O)c1ccccc1)[C@H](C)CN([C@@H](C)CO)S2(=O)=O	inactive
Cc1ccc(S(=O)(=O)N(C)C[C@@H]2OCCCC[C@@H](C)Oc3ccc(NS(=O)(=O)c4ccc(Cl)cc4)cc3C(=O)N([C@H](C)CO)C[C@@H]2C)cc1	inactive
C[C@@H]1CN([C@H](C)CO)C(=O)c2cccc(NC(=O)C3CCOCC3)c2O[C@H]1CN(C)S(=O)(=O)c1cn(C)cn1	inactive
CC(C)NC(=O)N(C)C[C@@H]1Oc2ccc(NS(=O)(=O)c3ccccc3)cc2CC(=O)N([C@H](C)CO)C[C@@H]1C	inactive
O=C(N[C@H]1C=C[C@H](CC(=O)N2CCOCC2)O[C@H]1CO)c1ccc2c(c1)OCO2	inactive
C[C@@H]1CN([C@H](C)CO)C(=O)c2cc(NC(=O)CCCN(C)C)ccc2O[C@H]1CN(C)S(=O)(=O)c1ccc(Cl)cc1	inactive
C[C@@H]1CN([C@@H](C)CO)C(=O)c2cc(NS(=O)(=O)c3cn(C)cn3)ccc2O[C@@H]1CN(C)Cc1ccc(C(=O)Nc2ccccc2N)cc1	inactive
COc1ccc(NC(=O)N(C)C[C@H]2OCCCC[C@H](C)Oc3ccc(NC(=O)Nc4ccc(F)cc4)cc3C(=O)N([C@@H](C)CO)C[C@@H]2C)cc1	inactive
CCCCOc1ccc(C(=O)C2=C(O)C(=O)N(Cc3cccnc3)[C@H]2c2ccc(O)c(OCC)c2)c(C)c1	inactive
CO[C@@H]1CN(C)C(=O)c2ccc(NS(=O)(=O)CC(F)(F)F)cc2OC[C@@H](C)N(C(=O)NC(C)C)C[C@H]1C	inactive
C[C@H]1CN([C@@H](C)CO)C(=O)Cc2cc(NC(=O)Nc3ccc4c(c3)OCO4)ccc2O[C@H]1CN(C)Cc1ccc(C(F)(F)F)cc1	active
Oc1ccc(F)c2ccccc12	inactive
C[C@@H]1CN([C@@H](C)CO)C(=O)c2cc(NC(=O)CCCCCC(=O)Nc3ccccc3N)ccc2O[C@H]1CN(C)Cc1ccccc1	active
CNC(=O)C[C@@H]1CC[C@H]2[C@H](COc3ccc(NC(=O)c4ccc(C(F)(F)F)cc4)cc3C(=O)N2C)O1	inactive
C[C@@H]1CN([C@@H](C)CO)C(=O)c2cc(NS(=O)(=O)c3ccccc3)ccc2O[C@@H](C)CCCCO[C@@H]1CN(C)CC1CCCCC1	inactive
Cn1cnc(S(=O)(=O)N2C[C@@H](O)COC[C@@H]3O[C@H](CC(=O)NCc4cccc(F)c4)CC[C@H]32)c1	inactive

Compound	cytotoxicity call
COCC#Cc1ccc([C@H]2[C@H]3CN(C(=O)c4cccnc4)CC(=O)N3[C@H]2CO)cc1	inactive
C[C@@H]1CN([C@H](C)CO)C(=O)c2cccc(NC(=O)c3cnccn3)c2O[C@H]1CN(C)S(=O)(=O)c1ccccc1	inactive
COc1ccc2c3c([nH]c2c1)[C@H](CO)N(C[C@]13CN(CC2CCCCC2)C1)C(=O)Nc1cccc(c1)F	active
Nc1nc(Cl)nc2c1ncn2[C@H]1C[C@@H](O)[C@@H](COP(=O)(O)OP(=O)(O)OP(=O)(O)O)O1	inactive
C[C@@H]1CN([C@@H](C)CO)C(=O)c2cc(NS(=O)(=O)c3ccc(F)cc3)ccc2O[C@@H](C)CCCCO[C@@H]1CN(C)C(=O)Nc1cccc2ccccc12	inactive
C[C@@H]1CN([C@H](C)CO)S(=O)(=O)c2ccc(Br)cc2O[C@H]1CN(C)C(=O)Nc1ccccc1	inactive
O=C(C[C@H]1CC[C@H]2[C@@H](COC[C@@H](O)CN2S(=O)(=O)c2ccccc2)O1)N1CCOCC1	inactive
COc1ccc(S(=O)(=O)Nc2cccc3c2O[C@H](CN(C)C(=O)Nc2cccc4ccccc24)[C@H](C)CN([C@@H](C)CO)C3=O)cc1	inactive
C[C@H]1CN([C@@H](C)CO)C(=O)Cc2cc(NS(C)(=O)=O)ccc2O[C@H]1CN(C)C(=O)Nc1ccc(C(F)(F)F)cc1	inactive
C[C@H](CO)N1C[C@H](C)[C@H](CN(C)C(=O)Nc2cccc3ccccc23)Oc2ccc(NC(=O)C3CCCCC3)cc2CC1=O	active
Cc1noc(C)c1NC(=O)N(C)C[C@H]1Oc2ccc(NS(=O)(=O)c3c(C)noc3C)cc2CC(=O)N([C@H](C)CO)C[C@@H]1C	inactive
C[C@H]1CCCCO[C@H](CN(C)S(=O)(=O)c2ccc(Cl)cc2)[C@@H](C)CN([C@@H](C)CO)C(=O)c2cc(NC(=O)Nc3ccc(C(F)(F)F)cc3)ccc2O1	inactive
CC1(C)C[C@@](C)(c2ccccc2)c2cc(SC#N)ccc2N1	inactive
C[C@H]1CN([C@@H](C)CO)S(=O)(=O)c2ccc(C#Cc3ccncc3)cc2O[C@@H]1CN(C)C(=O)Nc1ccc2c(c1)OCO2	active
CC(=C\C(=O)O)/C=C(\C)C[C@H](C)CCCC[C@H](OC(=O)[C@H](CO)[C@H](O)CCCC[C@H](C)C/C(C)=C/C(C)=C/C(=O)O)[C@@H](CO)C(=O)O	inactive
COc1ccncc1-c1ccccc1CN(C(=O)c1ccc(-c2ccc(C#N)cc2)o1)c1ccc(N2CCNCC2)cc1	active
CCS(=O)(=O)NCC[C@H]1CC[C@H](NC(=O)C2CCOCC2)[C@@H](CO)O1	inactive
C[C@H]1CN([C@@H](C)CO)C(=O)c2cccc(NS(=O)(=O)c3cn(C)cn3)c2O[C@H]1CN(C)Cc1ccc2c(c1)OCO2	inactive
C[C@@H]1CCCCO[C@H](CN(C)C(=O)Nc2ccc3c(c2)OCO3)[C@@H](C)CN([C@H](C)CO)C(=O)c2cc(NC(=O)Nc3ccc4c(c3)OCO4)ccc2O1	inactive
Cc1noc(C)c1S(=O)(=O)Nc1cccc2c1O[C@H](CN(C)Cc1ccccc1)[C@H](C)CN([C@@H](C)CO)C2=O	inactive
